# Source: PubChem BioAssay AID651820 (National Center for Advancing Translational Sciences (NCATS), 2012)
# Values joined by “and” are separate entries in the source; they are usually repeats but may differ in a detail not shown here. Identical values can stand only once. About 12,000 (3.5%) of roughly 340,000 compounds were called active. Inconclusive results, whose numbers are uncertain, are shown with a selection of clear calls. Calls follow the shape of the dose curve; as a rule, active = well fitted inhibition curve with a large enough effect; inconclusive = small, poorly fitted or top-dose-only effect, or another doubt; inactive = no such curve, though single readings can be large or run the other way. Potencies of inconclusive entries are left out as doubtful fits.
# Experiment: qHTS Assay for Inhibitors of Hepatitis C Virus (HCV)
# Details: Huh7.5.1 HCVcc-Cre (HCVcc is cell-culture hepatitis C virus) infection, luciferase reporter, 44 h; activity change, negative = inhibition: at 41.8 µM (top of the series) unless noted
# How it was run: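 HCVcc-Cre virus at an moi near 0.5 was added right after compound to cells cultured 4 h from seeding (1,000 cells/well). Luciferase activity was determined 44 h later, 15 min after substrate addition at RT.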
# % is scaled to controls: 0 for no effect and ±100 for the full control effect; potency is read from the fitted curve at half-maximal effect; tags tell the direction and shape of the fitted curve.
Structure (SMILES),Potency,"activity change, negative = inhibition"
CC(=O)Nc1ccc(S(=O)(=O)N2CCN=C2SCc2ccc(F)cc2)cc1,"inconclusive [inhibitor, single point]",
CCCCN(CC)CCNC(=O)c1cc2c(-c3ccccc3F)nn(C)c2s1,"inconclusive [inhibitor, partial curve]",
Cn1ccnc1SCC(=O)Nc1cccc(S(=O)(=O)N2CCCCCC2)c1,inactive,
CCc1ccc2oc(=O)cc(CN3CCC(C)CC3)c2c1,"inconclusive [inhibitor, single point]",
CN(C)c1ccc(-c2cc([C@H]3[C@@H]4C=CCC[C@@]4(C)C(=O)N3Cc3ccccc3)ccc2F)cc1,,inactive: -12.9% [at 8.37 µM]
COC(CNC(=O)C(=O)Nc1cc2c3c(c1)CC(=O)N3CCC2)OC,inactive,
CCn1ccnc1CNCc1cn(-c2cc(C)ccc2C)nc1-c1ccccc1,"inconclusive [inhibitor, single point]",
Cc1ccc2c(c1C)OC(=O)CC2c1ccccc1 (configuration not stated),inactive,
C=CC1CN2CCC1CC2c1[nH]c2ccccc2c1CCO (configuration not stated),inactive,
Cn1nc(C(=O)Nc2ccccc2Cl)cc1C(=O)Nc1ccccc1Cl,"inconclusive [inhibitor, partial curve]",
COc1ccc(-c2nc(CS(=O)CC(=O)NC3CCCCC3)c(C)o2)cc1OC (configuration not stated),inactive,
Clc1ccc(-c2csc(-c3cccnc3)n2)s1,"inconclusive [inhibitor, single point]",
COc1ccc(NC(=O)[C@@H]2CC=C[C@@H]3CCN(Cc4ccc(Cl)c(Cl)c4)C(=O)[C@@H]32)cc1,active: 0.562 µM,
CCN(C(=O)COC(=O)c1cc([N+](=O)[O-])ccc1N1CCOCC1)c1ccccc1,inactive,
Cc1ccc(Nc2nc(Cl)nc(NC(C)(C)C)n2)cc1,inactive,
Cc1cccc(C(=O)Nc2nnc(Cc3c[nH]c4ccccc34)s2)c1,"inconclusive [inhibitor, single point]",
O=C(OCc1ccccc1C(F)(F)F)c1cc([N+](=O)[O-])ccc1N1CCOCC1,"inconclusive [inhibitor, single point]",
O=C(NCc1ccccc1Cl)C(=O)NCC1OCCCN1S(=O)(=O)c1cccs1 (configuration not stated),inactive,
COc1ccc(-c2cc3nc(-c4ccccc4)cc(N4CCC5(CC4)OCCO5)n3n2)cc1,"inconclusive [inhibitor, partial curve]",
CC(=O)c1ccc(NC(=O)C(C)Sc2ccccn2)cc1 (configuration not stated),inactive,
N=c1c(C(=O)NC2CCCC2)cc2c(=O)n3ccccc3nc2n1CC1CCCO1 (configuration not stated),inactive,
O=[N+]([O-])c1ccc(-c2nc(NCC3CCCO3)c3ccccc3n2)cc1 (configuration not stated),"inconclusive [inhibitor, single point]",
C#CCOCCOCCOCCNc1nc(N2CCN(C(=O)CCCCCCCCCCNC(=O)[C@@H](CCC(=O)O)n3cc(CCCCCN)nn3)CC2)nc(N2CCN(C(=O)CCCCCCCCCCNC(=O)[C@H]([C@@H](C)CC)n3cc(CCCCCN)nn3)CC2)n1,"inconclusive [inhibitor, full curve]",
Cc1ccc(CNC(=O)/C(C#N)=C/c2ccc(C)s2)cc1,inactive,

Structure (SMILES),Potency,"activity change, negative = inhibition"
Cc1cc(OCCCCCNCCO)cc(C)c1Cl,active: 12.6 µM,
CCN1CC2=C(OC(N)=C(C#N)C2c2ccccc2)/C(=C\c2ccccc2)C1 (configuration not stated),"inconclusive [inhibitor, single point]",
Cc1ccc2[nH]c3c(c2c1)CCC3=O,"inconclusive [inhibitor, partial curve]",
COc1cc(CN(C)CC2CCCN(CCc3ccccc3F)C2)cc(Cl)c1OC (configuration not stated),"inconclusive [inhibitor, full curve]",
O=C(CN(c1ccc(F)cc1)S(=O)(=O)c1ccc2c(c1)OCCO2)Nc1ccccc1,inactive,
COC(=O)C1=C(Nc2ccc(C)cc2)C=C(C)C(C(=O)OC)C1c1ccc(F)cc1 (configuration not stated),"inconclusive [inhibitor, partial curve, poor fit]",
CSc1ccc(CN2CCC(n3nccc3NC(=O)c3ccccc3C)CC2)cc1,"inconclusive [inhibitor, single point]",
COc1ccc(S(=O)(=O)Cc2ccc(C(=O)N3CCN(c4ncccn4)CC3)o2)cc1,"inconclusive [inhibitor, partial curve]",
CCOc1ccc(OC(=O)c2cccnc2)cc1,inactive,
CC(=O)Nc1ccc(Nc2c([N+](=O)[O-])cc(S(C)(=O)=O)cc2[N+](=O)[O-])cc1,"inconclusive [inhibitor, partial curve]",
CC(C(=O)NCc1ccc(F)cc1)n1ccc2cc(S(=O)(=O)N3CCCC3)ccc21 (configuration not stated),active: 11.2 µM,
CCn1c(N)[n+](CC(=O)Nc2ccc(SC(F)F)cc2)c2ccccc21,"inconclusive [inhibitor, single point]",
Cc1cc2oc(=O)cc(CN3CCCCC3C)c2cc1C (configuration not stated),inactive,
Cc1cc(C)c2c(c1)cc(C)c1nnc(SCC(=O)Nc3ccc(S(=O)(=O)N4CCCCC4)cc3)n12,"inconclusive [inhibitor, partial curve]",
COc1cccc(C(=O)/C=C/c2ccc(N3CCCCC3)c([N+](=O)[O-])c2)c1,"inconclusive [inhibitor, partial curve]",
CCOc1ccc(CONS(=O)(=O)c2ccc(NC(C)=O)cc2)cc1Cl,"inconclusive [inhibitor, single point]",
CCOC(=O)c1cn(Cc2ccccc2)nn1,inactive,
CC(C)c1nc2cc3ccccc3cc2[nH]1,"inconclusive [inhibitor, single point]",
CC(=O)NC(Cc1c[nH]c2ccccc12)C(=O)Nc1ccc2c(c1)OCO2 (configuration not stated),inactive,
C/C(=N\NC(=O)c1cccc(C)c1)c1ccc(N2CCOCC2)cc1,"inconclusive [inhibitor, single point]",
O=C(O)CN1C(=O)/C(=C\c2cccc(OCc3ccccc3)c2)SC1=S,inactive,
COc1ccccc1/C=C/C(=O)Nc1cccc(C(C)=O)c1,"inconclusive [inhibitor, partial curve]",
CCc1[nH]nc(C(=O)N2CCCC(C(=O)c3cccc(OC(C)C)c3)C2)c1C (configuration not stated),"inconclusive [inhibitor, partial curve]",
Cc1ccc2nc(N(CCCN(C)C)C(=O)c3sc4ccccc4c3Cl)sc2c1,"inconclusive [inhibitor, partial curve, poor fit]",

Structure (SMILES),Potency,"activity change, negative = inhibition"
COc1ccccc1NC(=O)N(C1CCCC1)C1CCN(C(C)=O)CC1,inactive,
CC1CCN(CCOc2ccc(OCc3ccccc3)cc2)CC1,"inconclusive [inhibitor, single point]",
Cc1ccc(C)c(NC(=O)CSc2nc3ccc(N4C(=O)c5ccccc5C4=O)cc3s2)c1,inactive,
CN(C)/C=C/C(=O)c1cc(F)cc(C(F)(F)F)c1,inactive,
CCc1ccccc1NS(=O)(=O)c1cc2c3c(c1)CCN3C(=O)CC2,"inconclusive [inhibitor, partial curve]",
Cc1ccc(S(=O)(=O)N(C)C)cc1NC(=O)C(C)N(C)Cc1sccc1C (configuration not stated),active: 7.08 µM,
CC(C)(C)NC(=O)NCCc1ccccc1,inactive,
O=C(C1CCCN(S(=O)(=O)c2cccc3nonc23)C1)N1CCN(c2cccc(Cl)c2)CC1 (configuration not stated),active: 7.94 µM,
Cc1cccc(CSCCNC(=O)c2ccc(N(C)S(=O)(=O)c3ccccc3)cc2)c1,"inconclusive [inhibitor, single point]",
CCc1ccc(NC(=O)c2cc(-c3cccs3)on2)cc1,inactive,
COc1cccc(CN(C)C(=O)c2ccc(OCC(=O)Nc3cccc(C(F)(F)F)c3)c(OC)c2)c1,"inconclusive [inhibitor, full curve]",
CC(=O)Nc1ccc(S(=O)(=O)N(C#N)c2nc(N(C)C)nc(N(C)C)n2)cc1,inactive,
O=C(Cc1cccs1)Nc1nc2ccccc2s1,inactive,
COc1ccccc1N1CCN(C(=O)c2ccc(COc3cccc4c3OC(C)(C)C4)cc2)CC1,"inconclusive [inhibitor, partial curve]",
O=C(/C=C/c1ccc(Cl)cc1)N1CCN(c2ccc([N+](=O)[O-])c(N3CCOCC3)c2)CC1,active: 7.94 µM,
COc1ccc(C2=CC3=C(Br)C(=O)C(C)(O)C(=O)C3=CO2)cc1 (configuration not stated),inactive,
COc1ccc(NC(=S)NCCCN2CCCC2)cc1Cl,inactive,
Cc1ccc(CCNC(=O)c2cc(-c3ccncc3)nc3ccccc23)cc1,"inconclusive [inhibitor, partial curve]",
C=CC[C@H](CC(=O)NCCO)C(=O)N[C@@H](COC(=O)[C@H](CC=C)CC(=O)OC(C)(C)C)Cc1c[nH]c2ccccc12,inactive,
CCOc1cc(C(=O)Nc2cnccn2)cc(OCC)c1OCC,"inconclusive [inhibitor, partial curve]",
CCOC(=O)C1=C(C)N(c2ccc(C)cc2)C(=O)/C1=C\c1cccs1,"inconclusive [inhibitor, partial curve]",
Cc1cc(C)c(CN2CCC(n3nccc3NC(=O)CCOc3ccccc3)CC2)cc1C,"inconclusive [inhibitor, partial curve, poor fit]",
COc1ccc(NC(=O)c2sc3nc(N4CCCC4)c4c(c3c2N)CC(C)(C)OC4)c(OC)c1,"inconclusive [inhibitor, partial curve]",
CC(CCC(C)C(C)(C)C)[C@@H]1CC[C@H]2C3C[C@H](OS(O)(=S)=S)[C@H]4C[C@H](OS(O)(=S)=S)[C@@H](OS(O)(=S)=S)C[C@]4(C)[C@H]3CC[C@]12C (some centres not stated) (tested in a mixture with another compound),active: 10 µM and active: 2.51 µM,
